This is an account of results in PMC9722908.

Protein sequences, listed by entry. Tags and fused reporters are not part of them. Lines headed by an entry give the natural chain unless they say otherwise; changes in a name come on top.
UniProt Q8IUC6: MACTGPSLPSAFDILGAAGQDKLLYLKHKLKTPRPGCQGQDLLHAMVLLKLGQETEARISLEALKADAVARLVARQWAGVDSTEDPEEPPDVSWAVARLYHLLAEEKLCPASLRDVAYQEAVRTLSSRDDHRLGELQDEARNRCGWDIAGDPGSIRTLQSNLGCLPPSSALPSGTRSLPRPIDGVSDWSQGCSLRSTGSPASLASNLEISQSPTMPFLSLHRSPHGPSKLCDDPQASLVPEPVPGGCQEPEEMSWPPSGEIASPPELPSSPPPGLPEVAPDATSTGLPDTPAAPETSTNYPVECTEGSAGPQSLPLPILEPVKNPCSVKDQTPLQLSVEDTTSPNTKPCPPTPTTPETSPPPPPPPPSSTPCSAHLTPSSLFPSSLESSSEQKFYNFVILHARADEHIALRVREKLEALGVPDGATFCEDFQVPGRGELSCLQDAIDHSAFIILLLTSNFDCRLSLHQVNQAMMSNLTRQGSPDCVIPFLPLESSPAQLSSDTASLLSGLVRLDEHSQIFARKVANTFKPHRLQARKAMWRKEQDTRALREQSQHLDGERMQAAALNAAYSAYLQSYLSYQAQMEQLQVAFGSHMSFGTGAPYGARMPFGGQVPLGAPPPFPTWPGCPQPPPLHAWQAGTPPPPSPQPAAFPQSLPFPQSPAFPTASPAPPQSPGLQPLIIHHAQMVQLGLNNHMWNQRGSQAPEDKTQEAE
UniProt P06803: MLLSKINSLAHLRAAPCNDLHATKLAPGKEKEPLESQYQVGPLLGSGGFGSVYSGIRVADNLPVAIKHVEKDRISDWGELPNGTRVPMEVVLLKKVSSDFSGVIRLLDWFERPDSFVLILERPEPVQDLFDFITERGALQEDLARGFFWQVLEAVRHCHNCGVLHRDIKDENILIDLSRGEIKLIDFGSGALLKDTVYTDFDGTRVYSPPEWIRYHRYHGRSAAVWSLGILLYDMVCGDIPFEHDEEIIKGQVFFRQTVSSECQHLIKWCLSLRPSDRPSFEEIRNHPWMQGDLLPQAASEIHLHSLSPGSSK

For assay [1], the target named is T1, WT GST-fused human IRF3 (human) (UniProt Q14653).
T1 sequence: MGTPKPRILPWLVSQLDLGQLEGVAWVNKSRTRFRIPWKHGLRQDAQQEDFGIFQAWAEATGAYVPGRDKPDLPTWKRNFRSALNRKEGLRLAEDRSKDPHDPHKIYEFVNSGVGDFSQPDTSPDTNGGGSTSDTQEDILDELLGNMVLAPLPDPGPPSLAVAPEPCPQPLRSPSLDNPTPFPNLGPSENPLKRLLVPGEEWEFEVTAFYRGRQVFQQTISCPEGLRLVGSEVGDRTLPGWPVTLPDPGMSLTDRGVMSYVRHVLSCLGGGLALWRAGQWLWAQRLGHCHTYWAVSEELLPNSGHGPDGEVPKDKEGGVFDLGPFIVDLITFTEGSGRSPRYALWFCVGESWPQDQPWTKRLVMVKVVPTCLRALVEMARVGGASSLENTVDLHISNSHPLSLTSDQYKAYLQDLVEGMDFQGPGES
The experiment in a line: pull-down; HEK293T cells co-transfected with GST-tagged IRF3 and Flag-tagged Pim1; lysates (20 mM HEPES pH 7.4, 150 mM NaCl, 150 mM KCl, 10 mM EDTA, 10% glycerol, 1% NP-40) incubated with glutathione-Sepharose 4B at 4 °C for 1 h, immunoblot. On the technique in general: Immunoblotting shows a protein as a band on a membrane.

Assay [2] deals with T2, EGFP-IRF3 (human, WT) (human) (UniProt Q14653).
T2 sequence: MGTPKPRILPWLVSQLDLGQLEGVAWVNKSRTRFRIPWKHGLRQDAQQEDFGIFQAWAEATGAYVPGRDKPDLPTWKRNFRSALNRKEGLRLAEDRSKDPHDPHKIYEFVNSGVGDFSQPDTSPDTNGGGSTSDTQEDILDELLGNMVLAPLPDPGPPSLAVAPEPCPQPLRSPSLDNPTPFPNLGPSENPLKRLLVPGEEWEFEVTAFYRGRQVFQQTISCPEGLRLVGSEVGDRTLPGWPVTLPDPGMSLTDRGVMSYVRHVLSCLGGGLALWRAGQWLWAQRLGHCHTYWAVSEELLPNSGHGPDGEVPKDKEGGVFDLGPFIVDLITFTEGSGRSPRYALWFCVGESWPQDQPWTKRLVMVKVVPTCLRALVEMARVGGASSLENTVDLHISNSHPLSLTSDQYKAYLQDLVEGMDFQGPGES
The assay is described as follows: co-IP; HEK293T cells transfected with differently tagged constructs; RIPA lysates incubated with tag-specific antibodies overnight at 4 °C, protein G Sepharose, immunoblot.

The target of assay [3] is T3, Flag-TRAF3 (murine) (murine) (UniProt Q60803).
T3 sequence: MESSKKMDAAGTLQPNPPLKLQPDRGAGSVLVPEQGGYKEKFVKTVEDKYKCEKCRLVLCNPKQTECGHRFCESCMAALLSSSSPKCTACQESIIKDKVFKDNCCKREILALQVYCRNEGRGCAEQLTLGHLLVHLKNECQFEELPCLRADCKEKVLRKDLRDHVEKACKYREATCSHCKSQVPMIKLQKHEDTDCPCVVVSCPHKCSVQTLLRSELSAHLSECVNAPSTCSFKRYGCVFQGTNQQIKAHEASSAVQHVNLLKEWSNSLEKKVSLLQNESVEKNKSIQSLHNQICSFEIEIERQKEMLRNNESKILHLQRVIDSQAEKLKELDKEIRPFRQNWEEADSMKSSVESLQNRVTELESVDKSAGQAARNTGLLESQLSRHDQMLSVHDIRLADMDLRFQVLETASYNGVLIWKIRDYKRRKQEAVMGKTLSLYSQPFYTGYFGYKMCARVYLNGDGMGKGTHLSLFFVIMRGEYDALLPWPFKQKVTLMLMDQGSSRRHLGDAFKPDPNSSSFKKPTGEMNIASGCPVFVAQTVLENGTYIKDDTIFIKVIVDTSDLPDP
The assay is described as above.

Assay [4] deals with T4, Flag-tagged human TBK1 (K38A) (human) (UniProt Q9UHD2).
T4 sequence: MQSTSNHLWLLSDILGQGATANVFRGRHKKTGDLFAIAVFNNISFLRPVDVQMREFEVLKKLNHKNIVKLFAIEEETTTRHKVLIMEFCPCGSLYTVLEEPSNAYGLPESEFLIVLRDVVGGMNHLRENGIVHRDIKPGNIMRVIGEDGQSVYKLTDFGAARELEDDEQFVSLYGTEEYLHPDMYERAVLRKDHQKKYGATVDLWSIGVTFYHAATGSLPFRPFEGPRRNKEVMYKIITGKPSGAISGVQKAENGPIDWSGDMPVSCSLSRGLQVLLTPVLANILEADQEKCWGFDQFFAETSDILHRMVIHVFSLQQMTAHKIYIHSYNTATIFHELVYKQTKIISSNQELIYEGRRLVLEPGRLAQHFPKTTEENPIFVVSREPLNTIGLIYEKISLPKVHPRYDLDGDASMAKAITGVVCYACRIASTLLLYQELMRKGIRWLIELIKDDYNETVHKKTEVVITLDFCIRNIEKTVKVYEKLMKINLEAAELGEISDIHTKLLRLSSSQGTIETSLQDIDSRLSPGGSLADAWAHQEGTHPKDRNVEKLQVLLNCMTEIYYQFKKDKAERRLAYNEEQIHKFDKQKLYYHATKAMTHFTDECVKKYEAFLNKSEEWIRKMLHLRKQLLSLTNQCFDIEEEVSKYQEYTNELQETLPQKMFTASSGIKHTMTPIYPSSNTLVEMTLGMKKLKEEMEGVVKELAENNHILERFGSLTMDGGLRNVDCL
Described as above.

Assay [5] deals with Flag-tagged human TRIF (human) (UniProt Q8IUC6). The description is as above.
The target of assay [6] is T5, Flag-tagged human WT TBK1 (human) (UniProt Q9UHD2).
T5 sequence: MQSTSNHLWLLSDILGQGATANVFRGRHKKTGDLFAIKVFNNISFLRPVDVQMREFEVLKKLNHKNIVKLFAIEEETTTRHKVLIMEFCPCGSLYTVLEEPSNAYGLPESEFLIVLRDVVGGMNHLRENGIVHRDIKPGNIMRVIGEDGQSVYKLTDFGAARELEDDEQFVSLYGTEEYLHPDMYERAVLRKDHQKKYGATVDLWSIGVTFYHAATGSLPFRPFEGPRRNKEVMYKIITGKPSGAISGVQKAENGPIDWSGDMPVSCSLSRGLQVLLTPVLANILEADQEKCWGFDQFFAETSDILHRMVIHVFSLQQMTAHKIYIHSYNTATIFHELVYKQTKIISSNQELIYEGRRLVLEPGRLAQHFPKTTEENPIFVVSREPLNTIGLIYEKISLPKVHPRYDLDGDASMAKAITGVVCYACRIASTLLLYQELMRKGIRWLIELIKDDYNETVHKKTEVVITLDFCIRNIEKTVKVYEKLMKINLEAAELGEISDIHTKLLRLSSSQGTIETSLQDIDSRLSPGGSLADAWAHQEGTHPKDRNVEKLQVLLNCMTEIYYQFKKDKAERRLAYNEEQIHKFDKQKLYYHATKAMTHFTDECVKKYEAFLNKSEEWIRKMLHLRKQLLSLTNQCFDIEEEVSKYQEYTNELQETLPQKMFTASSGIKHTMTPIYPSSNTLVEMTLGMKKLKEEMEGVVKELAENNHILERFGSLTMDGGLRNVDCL
The assay is described as above.

The target of assay [7] is T6, endogenous TBK1 of murine macrophages (mouse (endogenous in BMDMs and RAW264.7)) (UniProt Q9WUN2).
T6 sequence: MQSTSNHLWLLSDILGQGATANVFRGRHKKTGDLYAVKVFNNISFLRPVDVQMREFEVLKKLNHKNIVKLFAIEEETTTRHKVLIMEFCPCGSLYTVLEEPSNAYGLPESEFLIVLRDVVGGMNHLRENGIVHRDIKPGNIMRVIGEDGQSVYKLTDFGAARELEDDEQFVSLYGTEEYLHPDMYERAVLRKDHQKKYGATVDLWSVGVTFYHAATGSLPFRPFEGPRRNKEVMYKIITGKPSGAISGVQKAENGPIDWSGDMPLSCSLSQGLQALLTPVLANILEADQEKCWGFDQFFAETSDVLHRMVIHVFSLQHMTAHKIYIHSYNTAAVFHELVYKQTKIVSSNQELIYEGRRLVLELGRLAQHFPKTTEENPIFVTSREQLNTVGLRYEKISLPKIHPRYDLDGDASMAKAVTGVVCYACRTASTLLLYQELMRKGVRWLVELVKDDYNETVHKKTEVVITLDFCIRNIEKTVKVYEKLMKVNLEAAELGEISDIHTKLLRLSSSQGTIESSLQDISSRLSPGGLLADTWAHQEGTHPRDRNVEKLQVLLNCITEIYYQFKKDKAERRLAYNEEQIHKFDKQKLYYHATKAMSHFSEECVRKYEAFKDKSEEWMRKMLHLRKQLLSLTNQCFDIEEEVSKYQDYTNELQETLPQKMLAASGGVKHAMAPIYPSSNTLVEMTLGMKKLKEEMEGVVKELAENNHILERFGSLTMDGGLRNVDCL
The assay is described as follows: co-IP; endogenous proteins; WT RAW264.7 cells treated with LPS (100 ng ml^-1), immunoprecipitation with an antibody against endogenous TBK1, immunoblot; complex seen 1 h after LPS.

For assay [8], the target named is Flag-tagged human TRIF (human) (UniProt Q8IUC6). The experiment in a line: co-IP; HEK293T cells transfected with differently tagged constructs; RIPA lysates incubated with tag-specific antibodies overnight at 4 °C, protein G Sepharose, immunoblot. The source holds these as a separate data set.
The target of assay [9] is T6, endogenous TBK1 of murine macrophages (mouse (endogenous in BMDMs and RAW264.7)). The assay is described as follows: co-IP; endogenous proteins; WT RAW264.7 cells treated with LPS (100 ng ml^-1), immunoprecipitation with an antibody against endogenous TBK1, immunoblot; complex seen 1 h after LPS. This is another data set of the same source.

Like-named read-outs stand apart in the source and are kept apart here. Results are given in words; binding and its absence hold for the method and conditions named. In cells and extracts the contact can be indirect. Some results given as binding are weak or reduced against the parent protein; the word gives no strength. For part of these data: Where a sequence is shown, tags or fusion partners need not be part of it.

For the molecule “Flag-tagged murine Pim1 K67M (from UniProt P06803 1-313) (enzyme)”, in assay [1], the binding entry is “binds”.

For “HA-tagged murine Pim1 (from UniProt P06803 1-313)”, the binding entry in [2] is on record as “binds”; in assay [3] it was “binds”; in assay [4] it was “no binding”; in [5], “binds”; in assay [6], “binds”.

As for “Pim1S, endogenous in RAW264.7 cells (from UniProt P06803 1-313)”, the binding result in [7] is “no binding”.

B1: EGFP-IRF3 (human, WT) (protein, UniProt Q14653 1-427)
chain: MGTPKPRILPWLVSQLDLGQLEGVAWVNKSRTRFRIPWKHGLRQDAQQEDFGIFQAWAEATGAYVPGRDKPDLPTWKRNFRSALNRKEGLRLAEDRSKDPHDPHKIYEFVNSGVGDFSQPDTSPDTNGGGSTSDTQEDILDELLGNMVLAPLPDPGPPSLAVAPEPCPQPLRSPSLDNPTPFPNLGPSENPLKRLLVPGEEWEFEVTAFYRGRQVFQQTISCPEGLRLVGSEVGDRTLPGWPVTLPDPGMSLTDRGVMSYVRHVLSCLGGGLALWRAGQWLWAQRLGHCHTYWAVSEELLPNSGHGPDGEVPKDKEGGVFDLGPFIVDLITFTEGSGRSPRYALWFCVGESWPQDQPWTKRLVMVKVVPTCLRALVEMARVGGASSLENTVDLHISNSHPLSLTSDQYKAYLQDLVEGMDFQGPGES
B1: the binding entry in assay [8] was “binds”.

B2: endogenous IRF3 of murine macrophages (protein, UniProt P70671 1-419)
chain: METPKPRILPWLVSQLDLGQLEGVAWLDESRTRFRIPWKHGLRQDAQMADFGIFQAWAEASGAYTPGKDKPDVSTWKRNFRSALNRKEVLRLAADNSKDPYDPHKVYEFVTPGARDFVHLGASPDTNGKSSLPHSQENLPKLFDGLILGPLKDEGSSDLAIVSDPSQQLPSPNVNNFLNPAPQENPLKQLLAEEQWEFEVTAFYRGRQVFQQTLFCPGGLRLVGSTADMTLPWQPVTLPDPEGFLTDKLVKEYVGQVLKGLGNGLALWQAGQCLWAQRLGHSHAFWALGEELLPDSGRGPDGEVHKDKDGAVFDLRPFVADLIAFMEGSGHSPRYTLWFCMGEMWPQDQPWVKRLVMVKVVPTCLKELLEMAREGGASSLKTVDLHISNSQPISLTSDQYKAYLQDLVEDMDFQATGNI
B2: in [9], the binding entry is reported as “binds”.
